In PubChem BioAssay AID686979 (National Center for Advancing Translational Sciences (NCATS), 2013):
Where “and” joins values, the source holds several entries; their conditions need not be identical. Identical values can stand only once. About 50,000 (12%) of roughly 420,000 compounds were called active. Inconclusive means that the source gave no clear call. Such entries were picked first, then a sample of the others. Calls follow the shape of the dose curve; as a rule, active = well fitted inhibition curve with a large enough effect; inconclusive = small, poorly fitted or top-dose-only effect; inactive = flat fitted curve, though single readings scatter. Potencies of inconclusive entries are left out as doubtful fits.

assay: qHTS for Inhibitors of human tyrosyl-DNA phosphodiesterase 1 (TDP1): qHTS in cells in presence of CPT; conditions: chicken DT40 Tdp1-/-;hTDP1 cells + 20 nM CPT, ATP luminescence, 48 h; activity change, negative = growth inhibition: at 46.2 µM (top of the series); also: nearly all actives have a fitted effect of over 55% in size
Outline: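 Cell growth measured by CellTiter-Glo luminescence after a minimum 48 h, 37 C compound exposure with 20 nM CPT in Tdp1-knockout DT40 cells stably expressing hTDP1, seeded 400/well; qHTS titration format.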
% is scaled to controls: 0 for no effect and ±100 for the full control effect; potency is read from the fitted curve at half-maximal effect; tags tell the direction and shape of the fitted curve.

Row | Structure (SMILES) | Potency | activity change, negative = growth inhibition
1 | COc1ccc(OC)c(Nc2nc(N)c([N+](=O)[O-])c(NC3CCCCC3)n2)c1 | active: 8.2 µM | –
2 | O=C(COc1ccccc1C(=O)Nc1ccccc1)Nc1ccc(-c2ccccc2)cc1 | inconclusive [inhibitor, single point] | –
3 | COc1ccccc1NC(=O)CN1CCN(CC(=O)Nc2ccc3c(c2)OCO3)CC1 | inconclusive [inhibitor, single point] | –
4 | COc1ccc(C2C(C#N)=C(C)NC3=C2C(=O)c2ccccc23)cc1 (stereo not drawn) | inconclusive [inhibitor, single point] | –
5 | CCOC(=O)c1c(C)[nH]c(C)c1S(=O)(=O)NCC(=O)NCc1ccccc1Cl | inconclusive [inhibitor, single point] | –
6 | Cc1cccc(N2CC(C(=O)Nc3nnc(SCc4cccnc4)s3)CC2=O)c1 (stereo not drawn) | – | inactive: 2.38%
7 | Nc1c(C(=O)Nc2ccccc2)c2nc3ccccc3nc2n1-c1ccc(O)cc1 | active: 10.3 µM | –
8 | Cc1ccc(N2C(=O)CC(Sc3nc(-c4ccccc4)c4cc(Cl)ccc4n3)C2=O)c(C)c1 (stereo not drawn) | inconclusive [inhibitor, single point] | –
9 | CCOC(=O)C1CCN(S(=O)(=O)c2ccc3c4c(cccc24)C(=O)N3CC)CC1 | – | inactive: 2.97%
10 | CN(Cc1ccccc1)C(=O)C1CCN(S(C)(=O)=O)CC1 | – | inactive: -5.81%
11 | CC(C)n1c2ccccc2c2nc3ccccc3nc21 | inconclusive [inhibitor, single point] | –
12 | COc1ccccc1CNC(=O)CCCn1c(=O)c2ccccc2n(Cc2ccccc2C#N)c1=O | active: 25.9 µM | –
13 | CC1(C(=O)NCc2cccc3ccccc23)CCN1CCc1ccccc1 (stereo not drawn) | inconclusive [inhibitor, single point] | –
14 | COc1cccc(C(NC(C)=O)c2nc(-c3cnc4ccccc4c3)cs2)c1 (stereo not drawn) | – | inactive: -3%
15 | Cc1ccc(NC(=S)NC2CCN(Cc3ccccc3)CC2)c(C)c1 | inconclusive [inhibitor, single point] | –
16 | Cc1cc(-c2ccc(N3CCOCC3)cc2)nc2ccccc12 | active: 20.6 µM | –
17 | O=C(Nc1nc2ccccc2[nH]1)c1ccc(S(=O)(=O)N2CCOCC2)cc1 | inconclusive [inhibitor, single point] | –
18 | COc1ccc2c(c1)c1c(c(=O)n(-c3cccc(C)c3)c(=O)n1CC(=O)NCC1CCCO1)n2C (stereo not drawn) | inconclusive [inhibitor, single point] | –
19 | CC(=O)OC1CCC2C3CCc4cc(O)ccc4C3CCC12C (stereo not drawn) | inconclusive [inhibitor, single point] | –
20 | COc1ccccc1NC(=O)CSc1oc(-c2ccccc2)nc1S(=O)(=O)c1ccccc1 | active: 20.6 µM | –
21 | CSCCC(NC(=O)c1cccc(C)c1)C(=O)OCC(=O)Nc1c(C)nn(-c2ccccc2)c1C (stereo not drawn) | – | inactive: 2.53%
22 | C=CCN1CCc2cc(O)c(O)cc2[C@H](c2ccccc2)C1 | inconclusive [inhibitor, single point] | –
23 | NCCCCCNC(=O)/C=N\O | – | inactive: -21.3%
24 | CC(C)n1nc(C(=O)Nc2cccc(S(=O)(=O)N3CCCCC3)c2)c2ccccc2c1=O | active: 13 µM | –
25 | CCN(CC)S(=O)(=O)c1cc(NC(=O)c2cc([N+](=O)[O-])ccc2N2CCOCC2)ccc1C | inconclusive [inhibitor, single point] | –

Row | Structure (SMILES) | Potency | activity change, negative = growth inhibition
26 | CCOC(=O)C1(CCCc2ccccc2)CCN(C(=O)CCn2cncn2)CC1 | inconclusive [inhibitor, single point] | –
27 | CCc1ccc(NC(=O)Cn2nnc(-c3ccc(C)cc3-n3cnnn3)n2)cc1 | – | inactive: -6.47%
28 | Cc1ccc(C(=S)N2CCN(Cc3ccccc3)CC2)cc1 | – | inactive: 4.15%
29 | Cc1cccc(Cc2c(C)nc3nc(SCc4ccccc4F)nn3c2C)c1 | active: 13 µM | –
30 | CCOC(=O)/C(=N\Nc1ncnc2ccccc12)c1ccc(OC)cc1 | – | inactive: -5.92%
31 | Cc1ccc(S(=O)(=O)N2C[C@]3(O)C[C@@H]4C(=O)N(c5ccccc5)C(=O)[C@@H]4C[C@]3(OC(=O)Nc3cccs3)C2)cc1 | inconclusive [inhibitor, single point] | –
32 | CN(CCCC1CCCC1)C(=O)c1cc(COc2ccc(F)cc2F)on1 | inconclusive [inhibitor, single point] | –
33 | CC(CCN1C(Nc2ccccc2)=NC[C@@H]1C)c1ccccc1 (stereo partly drawn) | active: 23.1 µM | –
34 | CN1/C(=C\C(=O)c2cccnc2Cl)C(C)(C)c2ccccc21 | active: 20.6 µM | –
35 | O=C(CNC1CCCC1)Nc1ccc(S(=O)(=O)N2CCCCC2)cc1 | – | inactive: -16.2%
36 | CC(=O)Nc1ccc(NC(=O)c2cc(-c3cccs3)on2)cc1 | – | inconclusive: -31.3% [inhibitor]
37 | O=C(CSC1=Nc2ccccc2N=C(c2ccc(F)cc2)C1)Nc1ccc(Cl)cc1 | active: 20.6 µM | –
38 | CCc1cccc(C)c1NC(=O)c1ccc2c(c1)CCN2S(=O)(=O)CC | inconclusive [inhibitor, partial curve] | –
39 | COC(=O)N[C@H](c1ccccc1)[C@@]1(C)C[C@@H]1[C@@H](C)C(=O)Nc1ccc2ccccc2c1 | inconclusive [inhibitor, single point] | –
40 | CC(C)(C)OC(=O)NCc1ccc(CNC(=O)c2[nH]cnc2C(=O)NCC(=O)OCc2ccccc2)cc1 | inconclusive [inhibitor, single point] | –
41 | COc1ccc(C(=O)/C=C/c2ccccc2OC)c(OC(=O)c2ccc([N+](=O)[O-])cc2)c1 | inconclusive [inhibitor, single point] | –
42 | COc1ccc(Cl)cc1NC(=O)NCCc1c(C)nn(C)c1C | inconclusive [inhibitor, partial curve] | –
43 | Cc1oc(-c2cccs2)nc1CN1CCN(CC(C)C)C(CCO)C1 (stereo not drawn) | inconclusive [inhibitor, full curve] | –
44 | CCOC(=O)c1c(C)[nH]c(C)c1C(=O)COC(=O)c1ccccc1O | inconclusive [inhibitor, partial curve] | –
45 | OC(CNCCc1ccccc1)COc1ccc(OCC(O)CNCCc2ccccc2)cc1 (stereo not drawn) | – | inactive: -92.4%
46 | CCNC(=O)COc1ccc(F)cc1C(=O)c1cnn(-c2ccccc2)c1 | inconclusive [inhibitor, single point] | –
47 | COCCN(C(=O)CSc1nnc(-c2ccccc2C)n1C)c1c(N)n(Cc2ccccc2)c(=O)[nH]c1=O | – | inactive: 15.7%
48 | COc1ccc(Nc2ncnc3onc(C)c23)c(OC)c1 | – | inactive: 3.25%
49 | CC(C)NC(=O)C1CCN(C(=O)c2cc3sccc3n2Cc2ccc(F)cc2)CC1 | active: 6.51 µM | –
50 | Cc1ccc(C)c(S(=O)(=O)N2CCN(C(=O)CCNS(=O)(=O)c3ccc(C)c(C)c3)CC2)c1 | inconclusive [inhibitor, single point] | –

Row | Structure (SMILES) | Potency | activity change, negative = growth inhibition
51 | CCOC(=O)N1CCN(C(=O)COC(=O)C2CCN(S(=O)(=O)c3c(C)c(C)cc(C)c3C)CC2)CC1 | inconclusive [inhibitor, single point] | –
52 | CN(Cc1ccc(F)cc1)C(=O)C(Cc1ccccc1)NC(=O)c1ccccc1 (stereo not drawn) | inconclusive [inhibitor, full curve, poor fit] | –
53 | COc1ccc([C@H]2CN(c3ccc(OC)cc3)C(=O)[C@@H]2CC(=O)Nc2ccc(Br)cc2)cc1 | inconclusive [inhibitor, single point] | –
54 | CC(Sc1nc(-c2ccccc2)cc(C(F)(F)F)n1)C(=O)NCCN1CCOCC1 (stereo not drawn) | – | inactive: 1.79%
55 | CCOc1ccc(S(=O)(=O)N2CCC(C(=O)N3CCCCCC3)CC2)cc1Cl | inconclusive [inhibitor, single point] | –
56 | CCCCn1c(SCc2nc3ccccc3s2)nc2cc(S(N)(=O)=O)ccc21 | active: 16.4 µM | –
57 | N#CC1=C(SCC(=O)Nc2ccccc2)NC(=O)CC1c1ccco1 (stereo not drawn) | active: 7.31 µM | –
58 | COc1ccc(/C=N/NC(=O)CNc2n[nH]c(=O)[nH]c2=O)cc1OC | – | inactive: 33.1%
59 | Cc1ccccc1-c1nnc(SCC(=O)NC2CCCCC2)o1 | inconclusive [inhibitor, partial curve] | –
60 | COC(=O)[C@]1(C)N[C@H](CN(C)C(C)=O)[C@@H]2C(=O)N(Cc3ccccc3)C(=O)[C@@H]21 | – | inactive: -1.96%
61 | CCC(=O)c1ccc(N2CCN(C(=O)c3cccc(F)c3)CC2)c(F)c1 | inconclusive [inhibitor, single point] | –
62 | O=C(CCCC(=O)c1ccccc1)NCCc1ccccc1F | – | inactive: 4.72%
63 | CC1CCCCN1C(=O)CSc1nnc(-c2ccc(Cl)s2)o1 (stereo not drawn) | inconclusive [inhibitor, single point] | –
64 | CCOc1ccc(C(=O)OCC(=O)N(Cc2ccccc2)Cc2ccccc2)cc1OC | active: 20.6 µM | –
65 | Cc1ccc(CN(Cc2cc3cc(C)ccc3[nH]c2=O)C(=O)N2CCOCC2)cc1 | – | inactive: 1.85%
66 | COc1cc(OC)c(OC)cc1CN1CCN(c2ccc(F)cc2)CC1 | inconclusive [inhibitor, single point] | –
67 | CCCCCCCCCCCCCCCCn1cc[n+](C)c1 | active: 259 nM and active: 461 nM | –
68 | Fc1ccc(OCCOCCN2CCCC2)cc1 | – | inactive: 0.694%
69 | COC(=O)CSc1nc(C)cc(Oc2ccccc2)n1 | – | inactive: 0.165%
70 | CCOC(=O)N1CCC(NC(=O)c2ccc(Cl)cc2)CC1 | – | inactive: 3.12%
71 | COc1cc(C(c2sc3nc(C)nn3c2O)N2CCC3(CC2)OCCO3)cc(OC)c1OC (stereo not drawn) | active: 16.4 µM | –
72 | Cc1c(C(=O)Nc2ccccc2)sc2nc[nH]c(=O)c12 | – | inactive: 6.62%
73 | COc1ccc(/C=C2\SC(=S)N(CC(=O)OCC(=O)Nc3cc(Cl)cc(Cl)c3)C2=O)cc1 | inconclusive [inhibitor, single point] | –
